Reference: PMC12136788
This is one part of the list.

B1: chr22:21763623:21763656:-|3pUTR|ENSG00000100030|msi1_unk|total|mutant (ssRNA)
RNA: GGGAGUUCUACAGUCCGACGAUCGUGCUUCCGUCUCCGGAAUCCUUGGGGAGCACUUGUCCACGUCUUUUCUCAUAUCAUGGCCGUCACUAACAUAUAUAAGGUAUGUGCUAUUGGCCCAGCUUUCCGAAAAUGCAGUCAUUUCAACAGAGGAUUGAGCAUCA
B2: chr9:130903550:130903651:-|3pUTR|ENSG00000130720|msi1|FALSE|unique (ssRNA)
RNA: GGGAGUUCUACAGUCCGACGAUCAAAUACCCGGCAUUAUGGGGACAGAGAGCAGGGGGCAGACAGCACCCCUGGAGUCCUCCUAGCAGAUCGUGGGGAACGUCAGGUCUCUCUGAGGUCAGGUCUGAGGCCAGUAUCCUCCAGCAACAGAGGAUUGAGCAUCA
B3: chr2:213007362:213008084:-|CDS|ENSG00000030419|control|control|control (ssRNA)
RNA: GGGAGUUCUACAGUCCGACGAUCCAAUGGAGAAGGAGAACAGAUUAGGGCCUUCAAGUGUGAGCACUGCCGAGUCCUUUUCCUAGACCAUGUCAUGUACACCAUUCACAUGGGUUGCCAUGGCUACCGGGACCCACUGGAAUGCAACAGAGGAUUGAGCAUCA
B4: ENSG00000198589:be:win_9201|3pUTR|ENSG00000198589|bound_else_gene|NA|bound_elsewhere_windowed (ssRNA)
RNA: GGGAGUUCUACAGUCCGACGAUCACCAUUUUUUCCUGAUCUGUCAUCUUCAUAGCACAACAAAACGAAAUGAUGGAAAUGCUCUUGAGCUCACAACAUUUGUUUUUCUUUUAAAGUAAAUGCAAGUACCAAAGCUCACUACUGCAACAGAGGAUUGAGCAUCA
B5: chr2:216672374:216672548:-|3pUTR|ENSG00000115461|msi1|total|mutant (ssRNA)
RNA: GGGAGUUCUACAGUCCGACGAUCUUUUUCUUUUUUUUUUUGAAGACAGCAAUAACCACAGUACAUAUUACUGCCGUUCUCUACCGUUUUACAUACAUUCAUACCAUAACUCUGUUCUCUCCUCUUUUUUGUUUUCAACUUUAACAACAGAGGAUUGAGCAUCA
B6: ENSG00000198589:be:win_4801|CDS|ENSG00000198589|bound_else_gene|NA|bound_elsewhere_windowed (ssRNA)
RNA: GGGAGUUCUACAGUCCGACGAUCCGAAGGAGGGACUCAGGCAUUGGGGAAGAAACAGCCACUGGUUUAGGAAGCCAUGUGGAAGUAACUCCUCACACAGCACCUCCUGGUGUCAGUGCAGGCCCAGAUGCAAUCAGCGAGGUGCAACAGAGGAUUGAGCAUCA

These binders were tested against MSI1 full-length (mouse, UniProt Q61474 1-362) (assay: nsRBNS (natural sequence RNA bind-n-seq); RBNS binding buffer (assumed for nsRBNS): 25 mM Tris pH 7.5, 150 mM KCl, 3 mM MgCl2, 0.01% Triton X-100, 500 ug/ml BSA, 20 U/ml SUPERase-In, 4 C; UNK is unkempt and MSI1 is Musashi-1; names of the RNAs are library labels; protein concentration not given here; high values mean tight binding).
UniProt Q61474, sequence (Q61474 whole entry): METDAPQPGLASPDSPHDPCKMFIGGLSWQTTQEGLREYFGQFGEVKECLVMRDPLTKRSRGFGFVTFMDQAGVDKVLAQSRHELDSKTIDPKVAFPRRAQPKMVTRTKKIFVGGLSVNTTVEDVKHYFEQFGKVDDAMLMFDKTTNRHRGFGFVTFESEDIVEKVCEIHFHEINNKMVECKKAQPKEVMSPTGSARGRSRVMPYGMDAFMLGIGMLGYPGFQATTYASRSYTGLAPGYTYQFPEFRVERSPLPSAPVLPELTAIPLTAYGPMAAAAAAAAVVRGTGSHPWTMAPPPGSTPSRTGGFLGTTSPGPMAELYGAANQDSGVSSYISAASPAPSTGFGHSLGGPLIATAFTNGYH
For B1, the binding signal was 0.528 enrichment R. B2 showed a binding signal of 0.492 enrichment R. B3 was tested, and the binding signal was 0.609 enrichment R. In the case of B4, the binding signal is reported as 0.392 enrichment R. For B5, the binding signal was 7.36 enrichment R. Binder B6 has a binding signal of 0.412 enrichment R.
